{
  "source": "the supplement of paper PMC11417369",
  "note": "± gives the standard deviation of the averaged measurements. Some of the results follow.",
  "data": [
    {"system": "PfAP2-EXP AP2 domain (GST-tagged)", "test": "gcPBM binding intensity (ln(normalized median fluorescence intensity)); higher = stronger DNA binding", "summary_of_the_method": "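The binding buffer was 1× PBS containing 1% milk, 0.2 mg/ml BSA, 0.5% salmon testes DNA and 0.03% Triton X-100. In it, GST-tagged P. falciparum DNA-binding domains expressed in E. coli were applied for 1 h to an Agilent 4 × 180k array of primer-extended double-stranded 36-bp intergenic genomic probes plus negative controls. Binding intensity, read with Alexa488 anti-GST antibody and a 488 nm scan, is the highest Masliner-normalised natural-log median intensity across replicate spots of either probe orientation.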", "values": [
      {"sequence": "ACAGTATTTCGAGATGGTACACATATATATATATAT [XGTACX_site6880]", "gcPBM binding intensity (ln)": "10 ± 0.32"},
      {"sequence": "AAAAAAAAAAAAAAAAGGGGGGGAGGGATTGAAAAA [CACACA_negctrl_site193]", "gcPBM binding intensity (ln)": "10.22 ± 0.042"},
      {"sequence": "AATGAGGATATATACACACATACATTAAAAAAATAT [CACACA_site1849]", "gcPBM binding intensity (ln)": "8.57 ± 0.5"},
      {"sequence": "ATGAGTTACATGGGAAAAATATATATATATATATAT [CACACA_negctrl_site579]", "gcPBM binding intensity (ln)": "10.1 ± 0.31"},
      {"sequence": "TTGTTGTATTATTTATGTACATATGTATATGTATAT [XGTACX_site1315]", "gcPBM binding intensity (ln)": "8.83 ± 0.23"},
      {"sequence": "TTTAAAAGATAAAACACACATACTAATAAAAAACAA [CACACA_site2556]", "gcPBM binding intensity (ln)": "8.82 ± 0.45"},
      {"sequence": "TTGTATCCTTAATGCATGCACCAAATAACAAAAGTA", "gcPBM binding intensity (ln)": "10.2 ± 0.38"},
      {"sequence": "TGATAAATATGGAGCACACACACATAAACATACATA [CACACA_site420]", "gcPBM binding intensity (ln)": "8.77 ± 0.56"},
      {"sequence": "ACATATATAAAATAATGTACATTTTTAAGAATGCGT [XGTACX_site7654]", "gcPBM binding intensity (ln)": "8.6 ± 0.32"},
      {"sequence": "ATTATAATTGCATATACACACAAAGGTTCATAACAA [CACACA_site7440]", "gcPBM binding intensity (ln)": "8.62 ± 0.4"},
      {"sequence": "ACAAGTAATTAAGAGTGTACATAACTATAAATCCAA [XGTACX_site5215]", "gcPBM binding intensity (ln)": "8.68 ± 0.4"},
      {"sequence": "TATAATAAAATATGTACACACATACACCCATATATA [CACACA_site4808]", "gcPBM binding intensity (ln)": "8.71 ± 0.38"},
      {"sequence": "TGTATGTATGTATTATTTGTTATTTTAATTTTTTTG [TGCATGCA_negctrl_site256]", "gcPBM binding intensity (ln)": "9.03 ± 0.28"},
      {"sequence": "GATATGATGAGATTGATATTCATAAGAGGATTAATG [GTGCAC_negctrl_site515]", "gcPBM binding intensity (ln)": "8.37 ± 0.46"},
      {"sequence": "AAAAATGATATGAGTTGTACATAAGTAAGAATTATT [XGTACX_site7089]", "gcPBM binding intensity (ln)": "8.62 ± 0.42"},
      {"sequence": "TAAAAACGATTTTTTGCACACACATAATAAGCAGAA [CACACA_site3870]", "gcPBM binding intensity (ln)": "9.01 ± 0.4"},
      {"sequence": "GGACAAGTTAAACGCACACAAATATATACCCCCATA [CACACA_site4996]", "gcPBM binding intensity (ln)": "9.54 ± 0.4"},
      {"sequence": "TATTATATATCAAAATGTACATTAATTTGAGTAATT [XGTACX_site5434]", "gcPBM binding intensity (ln)": "8.3 ± 0.39"},
      {"sequence": "GATGTGATGTATTTGGTATTTTTCGATGTTGGTAGG [CACACA_negctrl_site355]", "gcPBM binding intensity (ln)": "8.79 ± 0.73"},
      {"sequence": "TGTTCAGTAGGGCACACACACAACAAAATAAAAAAA [CACACA_site378]", "gcPBM binding intensity (ln)": "8.76 ± 0.57"},
      {"sequence": "TTACCTCTTTGAAATATACACACTAATCATATCAAC [CACACA_site8778]", "gcPBM binding intensity (ln)": "8.46 ± 0.33"},
      {"sequence": "TTTTTGCTATTCTATTATATATATAATATATTTTAC [CACACA_negctrl_site262]", "gcPBM binding intensity (ln)": "8.84 ± 0.33"},
      {"sequence": "CTTTTTTCAAAACACACACACAAGAAAATATATATA [CACACA_site3109]", "gcPBM binding intensity (ln)": "8.82 ± 0.51"},
      {"sequence": "TTTTTTTTTTTTGTGCGTACATACCATTTTAATAAT [XGTACX_site2760]", "gcPBM binding intensity (ln)": "8.78 ± 0.38"},
      {"sequence": "GAGATTTATTTATGTGCACACTAGAACAATTGGATC [CACACA_site2090]", "gcPBM binding intensity (ln)": "9.05 ± 0.3"},
      {"sequence": "AAGACATTTTTTAAGGTGCTTTGGAAAAAGGAGTAT [GTGCAC_site9816]", "gcPBM binding intensity (ln)": "8.77 ± 0.39"},
      {"sequence": "TTTAAAAGATAAAGACTGCACTTTAAGCACACAAAT [GTGCAC_site9752]", "gcPBM binding intensity (ln)": "8.69 ± 0.23"},
      {"sequence": "AATAAATATATAAATACACACAAACATACAGATATA [CACACA_site6088]", "gcPBM binding intensity (ln)": "8.9 ± 0.73"},
      {"sequence": "AATTCCTATAATGAGAGTACGCATTAGAACAGTAGG [XGTACX_site5721]", "gcPBM binding intensity (ln)": "8.79 ± 0.3"},
      {"sequence": "TTGATAAAAAAAAAAAAATAAAAAAAAAATAAAAAA [XGTACX_negctrl_site480]", "gcPBM binding intensity (ln)": "8.05 ± 0.37"},
      {"sequence": "AATTAATGGAAACAAGTCAAATGATCTTTATGCATA [TGCATGCA_negctrl_site540]", "gcPBM binding intensity (ln)": "8.47 ± 0.49"},
      {"sequence": "AAATTGTAGAAGCGTATTTCTCGAACTGGATGAATA [CACACA_negctrl_site1373]", "gcPBM binding intensity (ln)": "8.71 ± 0.54"},
      {"sequence": "TAAAGTGTAAAGAAGGTGCTCATTATTTATTTTTTT", "gcPBM binding intensity (ln)": "8.19 ± 0.33"},
      {"sequence": "TTTATATCGACTCTTCTTTATATAAGTTGTGATGTT [TGCATGCA_negctrl_site362]", "gcPBM binding intensity (ln)": "8.64 ± 0.35"},
      {"sequence": "AAAAAAGAAACAAACACACATACATACAAACAAACA [CACACA_site142]", "gcPBM binding intensity (ln)": "8.59 ± 0.26"},
      {"sequence": "TTTATATTAGGTCTTGAACGATTTTCATCATTATTA [TGCATGCA_negctrl_site100]", "gcPBM binding intensity (ln)": "8.27 ± 0.4"},
      {"sequence": "ATATGATATATTTTATGTACATATAAAACATATATA [XGTACX_site4297]", "gcPBM binding intensity (ln)": "8.3 ± 0.22"},
      {"sequence": "TTATACTTTTTTTCTTGGTGTAGAAAAAAAAGTTAG [CACACA_negctrl_site1207]", "gcPBM binding intensity (ln)": "8.39 ± 0.47"},
      {"sequence": "AGTTTCCTTGAGAAAAGTACGTAATACTACATATAT [XGTACX_site818]", "gcPBM binding intensity (ln)": "8.46 ± 0.28"},
      {"sequence": "TCCTGCCTCTCTTTGGTGCGTTGTAACCCTCGAGGA", "gcPBM binding intensity (ln)": "8.87 ± 0.22"},
      {"sequence": "AAAATTTAATATAATGCACACATAAAAAAAAATTCA [CACACA_site8640]", "gcPBM binding intensity (ln)": "8.48 ± 0.11"},
      {"sequence": "TAAATTATTTATAAAGCACACAAGAAAAAATAAAAT [CACACA_site2132]", "gcPBM binding intensity (ln)": "8.96 ± 0.42"},
      {"sequence": "ATATTAATATACATATGTACATATATATATATATAT [XGTACX_site7425]", "gcPBM binding intensity (ln)": "10.2 ± 0.24"},
      {"sequence": "TAAAGGCAAACAAACACACACACATATATACATATA [CACACA_site2123]", "gcPBM binding intensity (ln)": "8.61 ± 0.57"}
    ]}
  ]
}
